# About 2,200 (0.71%) of roughly 310,000 compounds showed an effect of 50% or more. Effects have a minus sign here. The list shows a part of the results.
# Target: human ether-à-go-go-related gene (hERG) potassium channel (human, UniProt Q12809)
# Assay: primary screen, population patch clamp on CHO cells stably expressing hERG
# human ether-à-go-go-related gene (hERG) potassium channel, sequence (Q12809 whole entry, looked up): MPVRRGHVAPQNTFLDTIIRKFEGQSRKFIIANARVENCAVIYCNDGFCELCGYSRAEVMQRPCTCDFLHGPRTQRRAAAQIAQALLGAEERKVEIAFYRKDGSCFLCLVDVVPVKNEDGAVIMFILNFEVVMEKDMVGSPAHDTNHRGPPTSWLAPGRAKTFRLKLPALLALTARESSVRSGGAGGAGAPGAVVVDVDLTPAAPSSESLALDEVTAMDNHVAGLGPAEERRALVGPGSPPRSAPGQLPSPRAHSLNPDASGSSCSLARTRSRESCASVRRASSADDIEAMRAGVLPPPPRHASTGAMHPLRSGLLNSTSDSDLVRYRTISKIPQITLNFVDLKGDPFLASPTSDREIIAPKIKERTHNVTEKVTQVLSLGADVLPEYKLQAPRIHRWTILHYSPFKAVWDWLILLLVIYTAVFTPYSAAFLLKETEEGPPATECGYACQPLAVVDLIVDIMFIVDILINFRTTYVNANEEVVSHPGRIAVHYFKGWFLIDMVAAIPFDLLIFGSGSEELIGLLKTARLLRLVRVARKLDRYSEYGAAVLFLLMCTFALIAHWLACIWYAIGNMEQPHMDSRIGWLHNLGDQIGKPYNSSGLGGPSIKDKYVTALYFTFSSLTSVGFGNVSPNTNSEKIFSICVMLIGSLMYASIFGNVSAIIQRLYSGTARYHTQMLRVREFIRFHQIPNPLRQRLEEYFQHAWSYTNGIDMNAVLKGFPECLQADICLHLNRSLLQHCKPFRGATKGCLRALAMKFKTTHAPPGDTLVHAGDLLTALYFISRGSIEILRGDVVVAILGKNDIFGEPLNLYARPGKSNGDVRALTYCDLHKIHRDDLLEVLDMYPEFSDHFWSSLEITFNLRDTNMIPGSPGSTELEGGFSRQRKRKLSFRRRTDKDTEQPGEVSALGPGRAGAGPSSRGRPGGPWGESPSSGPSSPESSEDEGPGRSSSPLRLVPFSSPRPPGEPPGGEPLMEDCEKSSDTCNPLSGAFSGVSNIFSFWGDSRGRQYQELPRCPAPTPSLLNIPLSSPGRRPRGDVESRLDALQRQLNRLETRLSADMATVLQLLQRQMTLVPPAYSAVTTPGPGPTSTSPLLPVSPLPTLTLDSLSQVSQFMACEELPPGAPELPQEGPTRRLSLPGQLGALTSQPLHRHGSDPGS
row,SMILES,"hERG current change (%, negative = inhibition) at 1uM [%]"
1,Cc1ccc(OCC(O)Cn2c(N3CCCCC3)nc3c2c(=O)[nH]c(=O)n3C)cc1C (stereo not drawn),15.3
2,Cc1ccsc1C(=O)OCC(=O)c1ccc(OC(F)F)cc1,-0.891
3,Cc1cc(-c2nnc(SCC(=O)Nc3ccccc3F)n2N)n[nH]1,16.2
4,O=C(CSc1ccccc1)NC(=O)NCc1ccccc1,12.9
5,Cc1onc(-c2ccccc2Cl)c1C(=O)N1CC(C)CC(C)C1 (stereo not drawn),3.09
6,N#Cc1ccc(C(=O)N2CCN(c3ncccn3)CC2)cc1,-4.68
7,CCS(=O)(=O)C(=C1NCCO1)S(=O)(=O)CC,-1.59
8,COc1ccc(C)cc1NC(=O)NC(C)c1ccncc1 (stereo not drawn),12.8
9,CNC(=S)N(CCO)Cc1cc2cc3c(cc2[nH]c1=O)OCO3,17.3
10,CC(=O)c1cccc(S(=O)(=O)Nc2c(C)nn(C)c2C)c1,6.45
11,COc1cc2nc(CN3CCN(S(=O)(=O)c4ccc(C)c(C)c4)CC3)[nH]c(=O)c2cc1OC,5.69
12,CC1CCCCC1NC(=O)CN1c2cccc3cccc(c23)S1(=O)=O (stereo not drawn),6.25
13,CCc1noc(C)c1C(=O)OCC(=O)NC(C)c1ccccc1 (stereo not drawn),-2.02
14,CC1CCC(C(C)C)C(OC(=O)Cn2c(COc3ccccc3)[n+](C)c3ccccc32)C1.[Cl-] (stereo not drawn),-54
15,O=C(CNCc1ccc(Cl)cc1)Nc1ccc2c(c1)OCCO2.O=C(O)C(=O)O,10.2
16,O=C(CN(c1ccc2c(c1)OCCO2)S(=O)(=O)c1ccccc1)N1CCN(Cc2ccccc2)CC1,12.4
17,Cc1cc(Br)ccc1OCCCCNCCO.O=C(O)C(=O)O,3.97
18,O=C(Nc1cccc(S(=O)(=O)N2CCOCC2)c1)[C@@H]1CCCN1S(=O)(=O)c1ccc(Cl)cc1,6.17
19,COc1ccc(N2CCN(C3CCCN(S(=O)(=O)c4ccc(C)cc4C)C3)CC2)cc1 (stereo not drawn),11.2

row,SMILES,"hERG current change (%, negative = inhibition) at 1uM [%]"
1,CCOC(=O)N1CCN(C(=O)c2ccc3c(c2)N(Cc2ccc(F)cc2)CCS3)CC1,1.33
2,CCCc1cc(=O)n2[nH]c(C)cc2n1,-9.61
3,CSc1ncccc1C(=O)N1CCCC(Nc2ccc(C)c(C)c2)C1 (stereo not drawn),12.1
4,O=Nc1c(-c2ccccc2)[nH]n(-c2ccccc2)c1=O,10.3
5,CC1(C)CC(=O)C=C(c2ccc(Oc3ccccc3)cc2)C1,11.2
6,CCS(=O)(=O)Nc1c(C(=O)OC)[nH]c2ccccc12,6.05
7,Cc1nnc2ccc(-c3ccc(NS(C)(=O)=O)cc3)nn12,0.745
8,Cc1ccc(Cn2c(=N)c(C(=O)NC3CCCC3)cc3c(=O)n4ccccc4nc32)cc1,-73.4
9,CN(C)CCCN1CC(C(=O)O)CC1=O (stereo not drawn),12.5
10,Cc1ccc(N2C(=O)NC(NC(=O)C(C)(C)C)(C(F)(F)F)C2=O)cc1C (stereo not drawn),8.36
11,COC(=O)C1=CN(Cc2ccccc2)C=C(C(=O)OC)C1c1ccc(OC)c(OC)c1,13.4
12,CC1CCCN(CC(=O)Nc2cc(S(=O)(=O)N3CCOCC3)ccc2N2CCCC2)C1 (stereo not drawn),5.6
13,Cn1c(=O)n(C)c2cc(N3CCCCC3)c(NC(=O)c3cccc(Cl)c3)cc21,3.79
14,O=c1[nH]c(-c2ccccc2)cs1,-0.516
15,CCOC(=O)c1nnc(-c2ccc(C)cc2)nc1Sc1ccccc1Cl,11
16,CC(=O)c1sc(NC(=O)c2ccccc2C)nc1C,11.8
17,CCN(CC)C(=O)/C(=C/c1cccc([N+](=O)[O-])c1)NC(=O)c1ccco1,-1.66
18,Cc1[nH]n(-c2ccccc2)c(=S)c1C=Nc1cccc([N+](=O)[O-])c1,0.845
19,O=S(=O)(NCCCN1CCOCC1)c1ccc2ccccc2c1,12.1

row,SMILES,"hERG current change (%, negative = inhibition) at 1uM [%]"
1,COc1ccc2c(c1)c(=O)oc1c(C)c(OCc3cc(C(=O)O)oc3C)ccc12,13.9
2,CCOc1ccc(-n2c(SCC(=O)NC)nnc2-c2ccco2)cc1,-2.29
3,Cc1cc(S(=O)(=O)Nc2ccc(N3CCOCC3)cc2)ccc1Br,10.4
4,O=C1CCCCC1C(=O)c1ccccc1 (stereo not drawn),14.9
5,Cl.Oc1ccc(COCc2ccccc2)c2cccnc12,0.951
6,COC(=O)c1cc(S(=O)(=O)NCC2CCN(Cc3cc(C)ccc3C)CC2)c[nH]1,2.48
7,CCN(Cc1nc2ccccc2c(=O)[nH]1)C(=O)CN1C(=O)NC2(CCCCC2C)C1=O (stereo not drawn),5.72
8,CS(=O)(=O)NNC(=O)Cn1nnc(-c2cc(C(F)(F)F)cc(C(F)(F)F)c2)n1,13.9
9,CN(C)C(=O)Oc1ccc2c(c1)O/C(=C\c1cccc(Cl)c1)C2=O,10.6
10,CSc1cccc(-n2ccc(=O)c(C)c2C)c1,10.4
11,CCCOC(=S)N/C(=N\S(=O)(=O)c1ccccc1)c1ccccc1,1.68
12,COc1ccc(-c2cn(-c3ccccc3)c(=S)[nH]2)cc1OC,12.8
13,CC12CCC(=O)N1C(C(=O)Nc1ccc(Cl)c(S(=O)(=O)N3CCCCC3)c1)CS2 (stereo not drawn),-3.44
14,Cn1c(=O)n(CCc2ccccc2)c(=O)c2c1nc1n2CCN1Cc1ccco1,-28.7
15,CC(OC(=O)CCCOc1ccccc1)C(=O)NC(N)=O (stereo not drawn),11.7
16,CCOc1ccc(C(C)(C)C)cc1S(=O)(=O)Nc1ccncc1,15.4
17,CC(C)C(C(=O)NCc1ccco1)N(Cc1ccco1)C(=O)CNS(=O)(=O)c1ccc(F)cc1 (stereo not drawn),15.3
18,CCCNC(=O)c1nnsc1Sc1ccc(Cl)cc1,6.05
19,CC(=O)Nc1ccc(/C(C)=N/NC(=O)c2ccccc2Cl)cc1,6.93

# From article PMC4336329 (PLoS ONE, 2015)
